# Some of the results follow.
# B1: PX14375l-pdi-526-25-526 (Parabacteroides distasonis) (protein)
# chain: DEEPKSTLTDVAYYKTQSQMESNVNYLYRTGAIGSYVDFGSAYIGPFASIQEELTGYFSNSYEGQEIVCRYTRELTRQQNTMQLASKMDKVWDDCYRGINVANGAIKHMPEVPMDQATADRLTAEAKFFRAFNYFYLVKTFGAVPFYTDPYELAENMELPRTETSTIYNQIESDLKDAMNVLPEATFAANGHRITKYVAAMTLTDVYMYQHKYAEAAETVRIVVNSNHKLTTNDDLAMNSAFNKLRSTDDLDEAIYAYEYDNQISPSNWLPTYAFDGDASSNGLFGTYAITQKVHGPNDRYLNIYESNDLRRQPNQFYHWTYTNPKTGKVWNSVGNAACCWYYYDEDALLTTGRGTKDWNVYRYAEALLDAAESIAQSTGVTAEAAGYLAQVKARANMEGKTAAEIASSLQSMGKQAFIEECWTERLRELPLEFKMWDMCVRTGMFPNISETTPGQVTYIPLVGAKNASGATIKESDLLWPLSVNEIQRNPSLTQNEGYSAK
# Tests used:
# Assay in all cases: glycan array binding signal (z-score within array); higher = stronger binding
# Details in all cases: glycan notation: IUPAC condensed, linker removed
# Fuc(a1-2)Gal = molecular target: Fuc(a1-2)Gal
# Method in brief: (§1)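 Glycan array binding is given as a within-array Z-score, which can be read as non-binding when negative. The arrays, 3228 of them, came from the Consortium for Functional Glycomics database and were retained only where the protein sequence was available. Z-scores were averaged across arrays of the same protein sequence at different concentrations or buffers and across linkers.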
# Fuc(a1-2)Gal(b1-3)GalNAc = molecular target: Fuc(a1-2)Gal(b1-3)GalNAc
# Method in brief: as §1
# [1] = molecular target: Fuc(a1-2)Gal(b1-3)GalNAc(a1-3)[Fuc(a1-2)]Gal(b1-4)Glc
# Method in brief: as §1
# [2] = molecular target: Fuc(a1-2)Gal(b1-3)GalNAc(a1-3)[Fuc(a1-2)]Gal(b1-4)GlcNAc
# Method in brief: as §1
# [3] = molecular target: Fuc(a1-2)Gal(b1-3)GalNAc(b1-3)Gal
# Method in brief: as §1
# [4] = molecular target: Fuc(a1-2)Gal(b1-3)GalNAc(b1-3)Gal(a1-4)Gal(b1-4)Glc
# Method in brief: as §1
# [5] = molecular target: Fuc(a1-2)Gal(b1-3)GalNAc(b1-4)[Neu5Ac(a2-3)]Gal(b1-4)Glc
# Method in brief: as §1
# Fuc(a1-2)Gal(b1-3)GlcNAc = molecular target: Fuc(a1-2)Gal(b1-3)GlcNAc
# Method in brief: as §1
# [6] = molecular target: Fuc(a1-2)Gal(b1-3)GlcNAc(b1-2)Man(a1-3)[Fuc(a1-2)Gal(b1-3)GlcNAc(b1-2)Man(a1-6)]Man(b1-4)GlcNAc(b1-4)GlcNAc
# Method in brief: as §1
# [7] = molecular target: Fuc(a1-2)Gal(b1-3)GlcNAc(b1-2)Man(a1-3)[Fuc(a1-2)Gal(b1-3)GlcNAc(b1-2)Man(a1-6)]Man(b1-4)GlcNAc(b1-4)[Fuc(a1-6)]GlcNAc
# Method in brief: as §1
# [8] = molecular target: Fuc(a1-2)Gal(b1-3)GlcNAc(b1-3)Gal(b1-4)Glc
# Method in brief: as §1
# [9] = molecular target: Fuc(a1-2)Gal(b1-3)GlcNAc(b1-3)GalNAc
# Method in brief: as §1
# [10] = molecular target: Fuc(a1-2)Gal(b1-3)GlcNAc(b1-3)[Fuc(a1-2)Gal(b1-3)GlcNAc(b1-6)]GalNAc
# Method in brief: as §1
# [11] = molecular target: Fuc(a1-2)Gal(b1-3)GlcNAc(b1-3)[Gal(b1-4)GlcNAc(b1-6)]Gal(b1-4)Glc
# Method in brief: as §1
# [12] = molecular target: Fuc(a1-2)Gal(b1-3)GlcNAc(b1-3)[Neu5Ac(a2-6)Gal(b1-4)GlcNAc(b1-6)]Gal(b1-4)Glc
# Method in brief: as §1
# [13] = molecular target: Fuc(a1-2)Gal(b1-3)GlcNAc6S
# Method in brief: as §1
# [14] = molecular target: Fuc(a1-2)Gal(b1-3)[Fuc(a1-4)]GlcNAc
# Method in brief: as §1
# [15] = molecular target: Fuc(a1-2)Gal(b1-3)[Fuc(a1-4)]GlcNAc(b1-2)Man(a1-3)[Fuc(a1-2)Gal(b1-3)[Fuc(a1-4)]GlcNAc(b1-2)Man(a1-3)]Man(b1-4)GlcNAc(b1-4)GlcNAc
# Method in brief: as §1
# [16] = molecular target: Fuc(a1-2)Gal(b1-3)[Fuc(a1-4)]GlcNAc(b1-2)Man(a1-3)[Fuc(a1-2)Gal(b1-3)[Fuc(a1-4)]GlcNAc(b1-2)Man(a1-6)]Man(b1-4)GlcNAc(b1-4)[Fuc(a1-6)]GlcNAc(b1-4)[Fuc(a1-6)]GlcNAc
# Method in brief: as §1
# [17] = molecular target: Fuc(a1-2)Gal(b1-3)[Fuc(a1-4)]GlcNAc(b1-3)[Fuc(a1-3)[Gal(b1-4)]GlcNAc(b1-6)]Gal(b1-4)Glc
# Method in brief: as §1
# [18] = molecular target: Fuc(a1-2)Gal(b1-3)[Fuc(a1-4)]GlcNAc(b1-3)[Gal(b1-4)GlcNAc(b1-6)]Gal(b1-4)Glc
# Method in brief: as §1
# Fuc(a1-2)Gal(b1-4)Glc = molecular target: Fuc(a1-2)Gal(b1-4)Glc
# Method in brief: as §1
# Fuc(a1-2)Gal(b1-4)Glc6S = molecular target: Fuc(a1-2)Gal(b1-4)Glc6S
# Method in brief: as §1
# Fuc(a1-2)Gal(b1-4)GlcNAc = molecular target: Fuc(a1-2)Gal(b1-4)GlcNAc
# Method in brief: as §1
# [19] = molecular target: Fuc(a1-2)Gal(b1-4)GlcNAc(b1-2)Man
# Method in brief: as §1
# [20] = molecular target: Fuc(a1-2)Gal(b1-4)GlcNAc(b1-2)Man(a1-3)[Fuc(a1-2)Gal(b1-4)GlcNAc(b1-2)Man(a1-6)]Man(b1-4)GlcNAc(b1-4)GlcNAc
# Method in brief: as §1
# [21] = molecular target: Fuc(a1-2)Gal(b1-4)GlcNAc(b1-2)Man(a1-3)[Fuc(a1-2)Gal(b1-4)GlcNAc(b1-2)Man(a1-6)]Man(b1-4)GlcNAc(b1-4)[Fuc(a1-6)]GlcNAc
# Method in brief: as §1
# [22] = molecular target: Fuc(a1-2)Gal(b1-4)GlcNAc(b1-2)[Fuc(a1-2)Gal(b1-4)GlcNAc(b1-4)]Man(a1-3)[Fuc(a1-2)Gal(b1-4)GlcNAc(b1-2)Man(a1-6)]Man(b1-4)GlcNAc(b1-4)GlcNAc
# Method in brief: as §1
# [23] = molecular target: Fuc(a1-2)Gal(b1-4)GlcNAc(b1-3)Gal(b1-4)GlcNAc
# Method in brief: as §1
# [24] = molecular target: Fuc(a1-2)Gal(b1-4)GlcNAc(b1-3)Gal(b1-4)GlcNAc(b1-2)Man(a1-3)[Fuc(a1-2)Gal(b1-4)GlcNAc(b1-3)Gal(b1-4)GlcNAc(b1-2)Man(a1-6)]Man(b1-4)GlcNAc(b1-4)GlcNAc
# Method in brief: as §1
binder,measurement,setting,value
B1,glycan array binding signal (z-score),Fuc(a1-2)Gal,-0.346
same,glycan array binding signal (z-score),Fuc(a1-2)Gal(b1-3)GalNAc,-0.202
same,glycan array binding signal (z-score),[1],-0.083
same,glycan array binding signal (z-score),[2],-0.219
same,glycan array binding signal (z-score),[3],-0.282
same,glycan array binding signal (z-score),[4],-0.199
same,glycan array binding signal (z-score),[5],-0.179
same,glycan array binding signal (z-score),Fuc(a1-2)Gal(b1-3)GlcNAc,-0.314
same,glycan array binding signal (z-score),[6],-0.052
same,glycan array binding signal (z-score),[7],0.156
same,glycan array binding signal (z-score),[8],-0.43
same,glycan array binding signal (z-score),[9],-0.246
same,glycan array binding signal (z-score),[10],0.39
same,glycan array binding signal (z-score),[11],0.058
same,glycan array binding signal (z-score),[12],-0.069
same,glycan array binding signal (z-score),[13],-0.185
same,glycan array binding signal (z-score),[14],-0.349
same,glycan array binding signal (z-score),[15],-0.14
same,glycan array binding signal (z-score),[16],0.236
same,glycan array binding signal (z-score),[17],0.176
same,glycan array binding signal (z-score),[18],-0.446
same,glycan array binding signal (z-score),Fuc(a1-2)Gal(b1-4)Glc,-0.179
same,glycan array binding signal (z-score),Fuc(a1-2)Gal(b1-4)Glc6S,-0.176
same,glycan array binding signal (z-score),Fuc(a1-2)Gal(b1-4)GlcNAc,-0.202
same,glycan array binding signal (z-score),[19],-0.198
same,glycan array binding signal (z-score),[20],3.23
same,glycan array binding signal (z-score),[21],0.097
same,glycan array binding signal (z-score),[22],0.132
same,glycan array binding signal (z-score),[23],-0.078
same,glycan array binding signal (z-score),[24],-0.157

# Source: the supplement of paper PMC8728848
